Experimental data taken from article PMC9226319, “Peripherally restricted transthyretin-based delivery system for probes and therapeutics avoiding opioid-related side effects” (Nature Communications, 2022).
Where “and” joins values, the source holds several entries; their conditions need not be identical. Equal entries are not always repeated. Where two headings read alike, the source gives them in different places.

System: Jurkat cell line
Settings: for % Cell viability: Jurkat cell line MTT assay, replicates

Row | SMILES | cytotoxicity, Jurkat (10 and 100 µM, 72 h, MTT) | % Cell viability (10 μM) | % Cell viability (100 μM) | % Cell viability (1 μM)
1 | C=CCN1CC[C@]23c4c5ccc(O)c4O[C@H]2[C@@H](OCCOCCOCCOCCOCCOCCOCCOC)CC[C@@]3(O)[C@H]1C5 [Naloxegol, reference compound] | no cytotoxicity | 105% | 102% | 
2 | C=CCN1CC[C@]23c4c5ccc(O)c4O[C@H]2[C@@H](OCc2cn(CCNCCCCCCOc4cc(OCCCc6c(C)n[nH]c6C)cc(C(=O)O)c4)nn2)CC[C@@]3(O)[C@H]1C5 [AG10-L2-Nal] |  | 95% and 104% and 105% | 99% and 100% | 
3 | COc1cccc2c1C(=O)c1c(O)c3c(c(O)c1C2=O)C[C@@](O)(C(=O)CO)C[C@@H]3O[C@H]1C[C@H](N)[C@H](O)[C@H](C)O1 [DOX] |  |  |  | 16% and 17%
